Among all 310,000 compounds or so, about 2,200 (0.71%) showed an effect of 50% or more. The effect is printed as a negative number. Some of the results follow.
The molecules below were run against human ether-à-go-go-related gene (hERG) potassium channel (human, UniProt Q12809) (assay: primary screen, population patch clamp on CHO cells stably expressing hERG).
human ether-à-go-go-related gene (hERG) potassium channel, sequence (Q12809 whole entry, looked up): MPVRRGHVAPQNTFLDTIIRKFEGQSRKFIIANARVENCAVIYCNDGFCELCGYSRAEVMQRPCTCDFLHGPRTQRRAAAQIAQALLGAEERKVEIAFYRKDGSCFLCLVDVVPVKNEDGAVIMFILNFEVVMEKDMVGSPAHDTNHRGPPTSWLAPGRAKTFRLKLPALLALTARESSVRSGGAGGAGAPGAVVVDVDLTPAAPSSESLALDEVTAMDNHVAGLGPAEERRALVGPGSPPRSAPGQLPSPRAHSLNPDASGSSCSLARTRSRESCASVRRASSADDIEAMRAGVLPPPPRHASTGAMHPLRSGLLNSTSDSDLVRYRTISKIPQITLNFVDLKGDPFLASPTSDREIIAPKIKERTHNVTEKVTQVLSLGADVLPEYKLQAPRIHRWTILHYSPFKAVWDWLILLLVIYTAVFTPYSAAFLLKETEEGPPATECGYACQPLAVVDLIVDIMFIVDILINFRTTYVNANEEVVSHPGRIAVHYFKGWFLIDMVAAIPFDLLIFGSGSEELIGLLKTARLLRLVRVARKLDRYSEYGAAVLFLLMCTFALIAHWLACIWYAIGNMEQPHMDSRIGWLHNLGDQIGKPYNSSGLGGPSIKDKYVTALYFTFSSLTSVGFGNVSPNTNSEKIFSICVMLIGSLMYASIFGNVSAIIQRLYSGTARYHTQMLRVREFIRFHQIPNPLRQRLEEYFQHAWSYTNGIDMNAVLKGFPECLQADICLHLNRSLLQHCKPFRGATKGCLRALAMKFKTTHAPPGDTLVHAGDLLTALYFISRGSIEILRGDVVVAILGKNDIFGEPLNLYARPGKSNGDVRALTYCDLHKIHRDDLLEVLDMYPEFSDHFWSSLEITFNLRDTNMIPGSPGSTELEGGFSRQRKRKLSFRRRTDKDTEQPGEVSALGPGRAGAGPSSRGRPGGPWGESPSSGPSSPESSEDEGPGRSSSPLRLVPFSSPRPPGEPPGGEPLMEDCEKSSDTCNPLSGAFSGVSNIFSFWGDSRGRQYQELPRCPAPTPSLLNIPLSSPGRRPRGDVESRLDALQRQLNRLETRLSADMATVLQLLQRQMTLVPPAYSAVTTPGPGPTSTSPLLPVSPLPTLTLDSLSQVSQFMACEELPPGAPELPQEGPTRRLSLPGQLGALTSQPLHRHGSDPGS

SMILES	hERG current change (%, negative = inhibition) at 1uM [%]
CCC(NC(=S)NCc1ccc(F)cc1)c1ccc(C(C)C)cc1 (stereo not shown)	18.2
CC1CCC2(CC1)NC(=O)N(CC(=O)N1CCc3ccccc3C1)C2=O (stereo not shown)	18.1
CCCC1(C(=O)OCC)NC(c2ccco2)C2C(=O)N(C)C(=O)C21 (stereo not shown)	1.11
CCN(CC)C1CC(=O)N(c2cccc(Cl)c2)C1=O (stereo not shown)	19.1
Cc1ccc(-c2nnn(CC(=O)N(CCCO)C(C(=O)NC3CCCC3)c3ccc(Cl)cc3)n2)o1 (stereo not shown)	11.7
CC(=O)Nc1cccc(OCc2ccc(S(=O)(=O)Cc3ccccc3)cc2)c1	0.658
O=C(Nc1cc(S(=O)(=O)N2CCOCC2)ccc1N1CCCCC1)c1ccccc1	4.65
O=C(Cn1nnc(-c2ccccc2)n1)NCc1ccc2c(c1)OCO2	10.2
O=C(c1cnccn1)N1CCCC(N2CCN(c3cccc(Cl)c3)CC2)C1 (stereo not shown)	2.94
CC1CCC(NC(=O)CN2CCCN(Cc3ccc(F)cc3Cl)C2=O)CC1 (stereo not shown)	8.34
NC(=O)COc1ccc(C(=O)NCC2(N3CCOCC3)CCCCC2)cc1	16
O=S(=O)(c1ccc(F)cc1)N1CCN(Cc2cc3c(cc2Br)OCCO3)CC1	-1.54
CCCCn1c(N)c(N(CCC(C)C)C(=O)c2ccc([N+](=O)[O-])o2)c(=O)[nH]c1=O	8.25
COC(=O)c1c[nH]n2c(=O)cc(C)nc12	7.66
CN(CC(=O)NC1CCCCCC1)S(=O)(=O)c1ccc(F)cc1	10.4
Nc1nc(CN2CCN(c3ccc(F)cc3)CC2)nc(N2CCCc3ccccc32)n1	3.89
COc1ccc2c(c1)CCc1cn3ncc(C#N)c3nc1-2	3.26
Cc1ccc(NC(=O)CSc2nnc(-c3ccncc3)o2)cc1	14.6
Cc1noc(NS(=O)(=O)c2ccc(NC(=O)CSc3nc4ccccc4s3)cc2)c1C	4.66
CCCCc1nnc2c(N(C)S(=O)(=O)c3ccc(C)cc3)nc3ccccc3n12	3.84
O=C(CCN1C(=O)c2ccccc2C1=O)N1CCN(Cc2ccc(Cl)cc2Cl)CC1	-6.95
COc1cc(/C=C(/C#N)c2nc3ccccc3[nH]2)ccc1OCC(=O)Nc1ccccc1C	14.9

SMILES	hERG current change (%, negative = inhibition) at 1uM [%]
CCc1nn(CCCN2CCN(c3cccc(Cl)c3)CC2)c(=O)n1CCOc1ccccc1.Cl	-13.2
Cl.OCCN1C2=NCCCN2c2ccccc21	10.3
N#C/C(=C\c1ccc(C#N)cc1)C(=O)c1ccccc1	12.3
CCN(CC)CCC(c1ccc2c(c1)OCO2)c1c(OC)cc(OC)c2ccc(=O)oc12 (stereo not shown)	-18.1
CCN1CCN(S(=O)(=O)c2cccs2)CC1	10.3
Cc1ccc(S(=O)(=O)CNC(=S)c2cccc(C)c2)cc1	-8.28
O=C(CCN1CCN(c2ccccc2)CC1)N/N=C/c1ccc([N+](=O)[O-])o1	-58.5
Cc1cccc(NC(=O)CN2CCN(C(=O)C3CCC3)CC2)c1C	-7.56
COc1cc2cc(/C=C/C(=O)c3ccco3)c(Cl)nc2cc1OC	14.6
Cn1c(=O)c2c(ncn2CC(=O)N2CCN(c3ccc(F)cc3)CC2)n(C)c1=O	-0.183
O=C(COC(=O)Cc1ccc(Cl)cc1Cl)Nc1ccccc1OC(F)F	12.8
N#CC(C#N)=Cc1ccc(-c2ccc(S(=O)(=O)N=C(N)N)cc2)o1	1.33
Oc1cc(O)c2c(c1)O[C@H](c1ccc(O)c(O)c1)[C@H](O)C2	-1.21
COc1ccccc1Cn1c(=S)[nH]c2ccc(Br)cc2c1=O	13.6
O=C(Cn1nc(C(=O)O)c2ccccc2c1=O)Nc1nc(-c2ccccc2)cs1	9.78
O=[N+]([O-])c1ccccc1OCCOc1ccccc1[N+](=O)[O-]	11.7
COc1ccc(OC)c(CN(CCN2CCOCC2)C(=O)Nc2ccccc2)c1	1.66
CCOC(=O)c1c(-c2ccc(C)o2)csc1N	3.32
CC(Oc1ccc(Br)cc1)C(=O)NC1CCCCCC1 (stereo not shown)	-2.05
COc1ccc(CN2CCN(C(=O)c3cccs3)CC2)c(OC)c1OC	10.3
CCN1CCCC1CNC(=O)C(=O)NC (stereo not shown)	4.02
